# Where “and” joins values, the source holds several entries; their conditions need not be identical. Identical values can stand only once. The list shows a part of the results. Shown are side measurements of this screen, not its main read-out; they come without a call.
# Key:
# Assay in all cases: Primary Screen for Target Class Profiling of Small Molecule Inhibitors of Methyltransferases
# [1] = molecular target: Glycine N-methyltransferase (Homo sapiens) (UniProt Q14749); details: purified enzyme, MTase-Glo SAH luminescence; measured here: GNMT inhibition; at 40 µM; stronger effect = lower value
# How it was run: (§1)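 Each enzyme was reacted with SAM and its substrate, with compounds tested once at 40 uM; SAH formed was read by MTase-Glo luminescence.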
# [2] = molecular target: Guanidinoacetate N-methyltransferase (Homo sapiens) (UniProt Q14353); details: purified enzyme, MTase-Glo SAH luminescence; measured here: GAMT inhibition; at 40 µM; stronger effect = lower value
# How it was run: as §1
# [3] = molecular target: Histamine N-methyltransferase (Homo sapiens) (UniProt P50135); details: purified enzyme, MTase-Glo SAH luminescence; measured here: HNMT inhibition; at 40 µM; stronger effect = lower value
# How it was run: as §1
# [4] = molecular target: Nicotinamide N-methyltransferase (Homo sapiens) (UniProt P40261); details: purified enzyme, MTase-Glo SAH luminescence; measured here: NNMT inhibition; at 40 µM; stronger effect = lower value
# How it was run: as §1
# [5] = molecular target: Phenylethanolamine N-methyltransferase (Homo sapiens) (UniProt P11086); details: purified enzyme, MTase-Glo SAH luminescence; measured here: PNMT inhibition; at 40 µM; stronger effect = lower value
# How it was run: as §1
# % is scaled to controls: 0 for no effect and ±100 for the full control effect.
Compound,"activity change, negative = inhibition [1]","activity change, negative = inhibition [2]","activity change, negative = inhibition [3]","activity change, negative = inhibition [4]","activity change, negative = inhibition [5]"
CC1CCC(NC(=O)C2(C)Cn3c(ccc3-c3ccco3)C(=O)N2Cc2cccnc2)CC1 (stereo not drawn),0.916%,0%,10.8%,3.9%,3.59%
CC1(C(=O)NC2CCCCC2)Cn2c(ccc2-c2ccco2)C(=O)N1Cc1ccc2c(c1)OCO2 (stereo not drawn),-6.96%,-0.065%,0.555%,-6.61%,-4.68%
CCOc1ccc(CCN2C(=O)c3ccc(-c4ccco4)n3CC2(C)C(=O)NC2CCCCC2)cc1 (stereo not drawn),-11.3%,-0.146%,-6.35%,-11%,-7.74%
CC1CCC2(C(=O)O)CCC3(C)C(=CCC4C5(C)CCC(O)C(C)(C(=O)O)C5CCC43C)C2C1(C)O (stereo not drawn),2.83%,6.22%,3.94%,-7.12%,6.51%
CNC(=O)[C@@H]1CN(C(=O)c2conc2C)C[C@H]1COC,-5.71%,-10.1%,-4.44%,-12.6%,-23.1%
Cc1ccccc1CCN1CCC(CN(C(=O)c2ccoc2C)C2CCCC2)CC1,-5.59%,-3.3%,-10.2%,-12.8%,-6.61%
CON(C)C(=O)[C@H](O)[C@H](Cc1ccccc1)NC(=O)c1cc2cc(Cl)ccc2[nH]1,-1.17%,8.62%,10.4%,-14.9%,3.32%
Cn1ncc(Cl)c1-c1cc(C(=O)N[C@H](CN)Cc2ccc(F)c(F)c2)sc1Cl,9.68%,12%,9%,-14%,5.46%
COc1cccc(CNC(=O)N2CCn3cccc3C2Cc2ccccc2)c1 (stereo not drawn),1.78%,0%,1.78%,-3.54%,-2.27%
CCOC(=O)c1cc2n(n1)CC(C)(C(=O)NC1CCCC1)N(Cc1ccc(Cl)cc1)C2=O (stereo not drawn),4.94%,2.49%,6.6%,5.31%,4.72%
Cc1ccccc1CNC(=O)CCn1ccc2cc(S(=O)(=O)N3CCCCC3)ccc21,5.34%,0%,4.73%,-2.1%,1.59%
NC(=O)c1cccc(CN2CCCC3(Cc4ccccc4N(C(=O)c4ccc(Cl)cc4)C3)C2)c1 (stereo not drawn),-7.76%,-2.81%,-6.83%,-11.7%,-7.3%
CCNc1nc2c(ncn2[C@H]2C[C@H](O)[C@@H](CO)O2)c(=O)[nH]1,-0.892% and 4.27%,4.12% and 8.4%,1.64% and 6.91%,-4.5% and -11.5%,8.2% and -0.882%
NC(=O)NO,6.57%,11.7%,5.19%,-2.14%,9.44%
Clc1ccccc1C(c1ccccc1)(c1ccccc1)n1ccnc1,-9.99%,4.48%,-15.4%,-34.8%,6.11%
CCN(CC)C(=O)c1ccc(Nc2nc(OCC3CCCCC3)c3[nH]cnc3n2)cc1,-14.8%,-1.78%,-12.5%,-84.1%,-22.8%
CC(=O)OC1CC(=O)C2(C)C3CC4=C(OC(C)CC4=O)OC3(C)CCC2C1(C)C (stereo not drawn),-3.76%,2.25%,2.81%,-91.2%,2.78%
Cc1ccc(C)c(Cn2nc3n(CC(C)C)c(=O)c4ccccc4n3c2=O)c1,3.84%,2.74%,5.59%,3.56%,4.46%
CN1C(=O)c2cc(C(=O)NCc3ccc4c(c3)OCO4)nn2CC1(C)C(=O)NC1CCCCC1 (stereo not drawn),-0.814%,3.31%,-1.57%,5.24%,1.39%
Cc1ncoc1C(=O)N1C[C@@H](COCC2CC2)[C@H](c2ccccn2)C1,-1.47%,-3.84%,1.21%,-0.492%,-1.06%
CCOc1ccc(CCN2C(=O)c3c(C(=O)OC)ncn3CC2(C)C(=O)NC2CCCCCC2)cc1 (stereo not drawn),4.23%,1.38%,3.15%,12.9%,6.58%

Compound,"activity change, negative = inhibition [1]","activity change, negative = inhibition [2]","activity change, negative = inhibition [3]","activity change, negative = inhibition [4]","activity change, negative = inhibition [5]"
CCOC(=O)c1cn(C2CN(S(=O)(=O)c3ccc(C)c(C)c3)C2)nn1,0.74%,-0.08%,1.86%,-2.41%,2.93%
Cn1ncc2c(C(=O)NC3CCCCCC3)cc(C(C)(C)C)nc21,-6.96%,-7.4%,-5.65%,-13.7%,-7.77%
CC(C)C(NC(=O)c1ccc(O)cc1)C(=O)N1CCCC1C(=O)Nc1c(O)cccc1C(=O)O (stereo not drawn),0%,5.99%,11.1%,-5%,2.36%
CNC(=O)[C@@H](C1CC1)N1CCC[C@H]1C(=O)NCc1cccnc1,0.495%,-1.59%,0.189%,-1.05%,1.31%
COc1ccccc1CNc1nc2c(S(=O)(=O)c3ccc(C)cc3)nnn2c2ccccc12,1.15%,0%,4.97%,-4.33%,0.421%
Cc1cc(F)ccc1NC(=O)CCC1CCCN(C(=O)CC2=CCCCC2)C1 (stereo not drawn),-6.06%,-6.26%,-1.68%,-11.8%,-16.8%
Cc1cccc(C(C(=O)N2CCN(Cc3noc(C)n3)CC2)N(C)C)c1 (stereo not drawn),-1.24%,-1.12%,1.27%,2.46%,0.535%
CCCC1=Nc2cc(C(=O)NCCCN3CCCCC3CC)ccc2Sc2ccc(C)cc21 (stereo not drawn),-6.83%,0.33%,-66.4%,-27.2%,-4.09%
CC1CCC2(C=O)C(CO)=CCCC2C1(C)CC(=O)O (stereo not drawn),-10.4%,-4.79%,-3.79%,-16.6%,-0.237%
COc1ccc(-c2noc(-c3nc(-c4ccc(N(C)C)cc4)no3)n2)cc1OC,-2.06%,-0.91%,-2.96%,1.89%,0.059%
O=C(Cc1ccccc1)NCc1ccnc2[nH]ccc12,-5.36%,-4.36%,-2.83%,-16.3%,4.58%
O=C(O)c1cccc(S(=O)(=O)N2CCc3ccccc3C2)c1,1.74%,-5.49%,1.36%,-14.6%,-4.11%
Cc1ccc(Cn2c(=O)c3ccccc3n3c(CCC(=O)NC4CCCCC4)nnc23)cc1,-5.63%,4.02%,1.53%,7.15%,-3.36%
COc1ccc(CNC(=O)CCc2nnc3n(CCC(C)C)c(=O)c4ccccc4n23)cc1,-8.3%,0.794%,7.8%,-8.57%,1.13%
O=C(CN1CCCc2nc(-c3ccncc3)ncc2C1=O)NCc1cc(F)ccc1F,-8.57%,-11.9%,-5.36%,-12.5%,-6.12%
COc1cccc(CN2C(=O)c3cc4ccccc4n3CC2(C)C(=O)NCc2ccccc2)c1 (stereo not drawn),2.68%,1.28%,8.82%,1.39%,1.78%
CN(C)CC1(O)CCN(C(=O)Cn2cc(C(=O)C3CC3)c3ccccc32)C1 (stereo not drawn),-4.7%,-3.79%,-31.9%,-9.62%,-19.5%
Cc1ccccc1NC(=O)N1CCn2cccc2C1C (stereo not drawn),3.35%,0%,5.25%,-6.13%,3.21%
OCC(O)c1cc2n(n1)CCN(Cc1ccccc1Cn1cccn1)C2 (stereo not drawn),-3.79%,-0.146%,-1.49%,-4.67%,7.67%
COc1ccc(NC(=O)C2CCN(C(=O)c3ncn4c3COC(c3ccccc3)C4)CC2)cc1Cl (stereo not drawn),-6.05%,-8.27%,-2.49%,-15.8%,-11.1%
COCCCN1C(=O)CSc2c(c3ccccc3n2C)C1C(=O)NCc1ccc(F)cc1 (stereo not drawn),-8.13%,-1.07%,-0.728%,-1.94%,-2.52%

Compound,"activity change, negative = inhibition [1]","activity change, negative = inhibition [2]","activity change, negative = inhibition [3]","activity change, negative = inhibition [4]","activity change, negative = inhibition [5]"
Cc1ccc(Cl)cc1NC(=O)Cn1nc2n(CCc3ccccc3)c(=O)c3ccccc3n2c1=O,6.08%,0%,5.36%,4.56%,3.68%
COc1ccc(-c2cc3nc4c(c(=O)n3[nH]2)CN(C(=O)CN(C)S(=O)(=O)c2cnc[nH]2)CC4)cc1,-41.7%,-39.3%,-34.9%,-42.4%,-63.8%
O=C(O)[C@H]1CCCC[C@H]1C(=O)N1CCc2ccccc2[C@H]1CN1C(=O)c2ccccc2C1=O,-2.21%,4.87%,10.8%,-11.2%,3.23%
NS(=O)(=O)c1ccc(F)c(C(=O)NCCSc2ccccn2)c1,-4.41%,-2.57%,-0.422%,-4.52%,-4.98%
CC(C)NC(=O)c1ccc2c(=O)n(C(C)C)c3nn(CC(=O)Nc4ccccc4F)c(=O)n3c2c1,5.52%,1.38%,0.376%,0.657%,5.92%
Cc1cccc(Oc2cnc(=O)[nH]c2)c1,-1.8%,-3.6%,5.19%,-14.8%,-8.64%
CCC(C)NC(=O)c1ccc2c(=O)n(CC(C)C)c3nn(Cc4ccccc4C)c(=O)n3c2c1 (stereo not drawn),-5.92%,-2.73%,-4.85%,-10.2%,-5.29%
COCCCN1C(=O)c2ccccc2CC1(C)C(=O)NC1CCCCC1 (stereo not drawn),-3.91%,-0.46%,-3.55%,4.5%,-6.97%
COc1ccc(C(=O)Nc2ccc3oc(-c4ccc(F)cc4Cl)nc3c2)cc1,,6.84%,,-7.37%,3.42%
COc1ccc(OC)c2c1cc1n2CC(C)(C(=O)NC2CCCCC2)N(Cc2cccnc2)C1=O (stereo not drawn),-78%,-39.7%,-1.62%,-21.2%,-74.1%
Cc1ccc(NC(=O)Cn2c(=O)oc3cc(S(=O)(=O)N4CCCCC4)ccc32)c(Cl)c1,-3.09%,0.535%,2.52%,-1.37%,-2.46%
CCCn1c(=O)c2ccc(C(=O)NC(C)C)cc2n2c(=O)n(CC(=O)Nc3cc(F)ccc3F)nc12,-1.33%,1.82%,-1.57%,-4.75%,1.06%
O=C(Nc1ccc(Br)cc1)N1Cc2c(sc3c2CCCC3)-n2cccc2C1c1ccccc1 (stereo not drawn),-3.25%,-1.64%,-4.57%,-9.41%,-2.11%
COc1cc2c(cc1OC)CN(CCc1ccc(NC(=O)c3cccc4c(=O)c5cccc(OC)c5[nH]c34)cc1)CC2,-69.9%,0.65%,-55.8%,-88.2%,-13.3%
Cc1ccc([S+](=O)([O-])N2CCCC2C(=O)N2CCC3(CC2)CC(=O)Nc2ccccc2O3)cc1 (stereo not drawn),-5.88%,4.12%,3.25%,-5.92%,-2.04%
CC1(C(=O)NC2CCCCCC2)Cn2c(nc3ccccc32)C(=O)N1Cc1ccc2c(c1)OCO2 (stereo not drawn),0.157%,1.83%,6.64%,-3.9%,1.69%
CC1CCN(S(=O)(=O)c2ccc3c(c2)oc(=O)n3CC(=O)N2CCC(Cc3ccccc3)CC2)CC1,-4.97%,0.183%,0.649%,-1.26%,-6.05%
CC(C)N1C(=O)C2(CCCC2)C1C(=O)NCCCN1CCc2ccccc2C1 (stereo not drawn),-6.31%,0.017%,-2.03%,1.12%,1.92%
Cc1cc(NC(=O)Nc2ccc(F)c(F)c2)n(-c2ccccc2)n1,1.23%,0.895%,3.39%,-12.7%,-2.59%

# Source: PubChem BioAssay AID1745853 (National Center for Advancing Translational Sciences (NCATS), 2022)
